48 molecules from PubChem BioAssay AID1508642 (National Center for Advancing Translational Sciences (NCATS), 2021) can be followed below.

Each structure is given as a SMILES string. About 200 (0.47%) of roughly 43,000 compounds were called active. Inconclusive results (about 12%) are left out. Calls follow the shape of the dose curve; as a rule, active = well fitted cell-killing curve with a large enough effect; inconclusive = small, poorly fitted or top-dose-only effect, or effect the other way; inactive = flat fitted curve, though single readings scatter. Some of the results follow.
% is scaled to controls: 0 for no effect and ±100 for the full control effect.

The test can be described thus: Cell viability qHTS assay in S16 Pmp22-F2sN cells. Also: nearly all actives have a fitted effect of over 65% in size. As to conditions: S16 Pmp22-F2sN Schwann cells viability, CellTiter-Glo, 24 h; series mostly up to 57.5 µM; activity change, negative = cytotoxicity: at the top concentration. The gist of the method:
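S16 Pmp22-F2sN Schwann cells (500-1,000/well) in phenol-red-free DMEM with 10% FBS received 23 nL compound by pin tool for 24 h at 37 °C. Viability was then read as CellTiter-Glo luminescence after 15 min at room temperature.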
As to `COc1cc2[nH]c(=O)n(Cc3ccc(C(=O)N4CCN(c5cc(Cl)ccc5C)CC4)cc3)c(=O)c2cc1OC`, the “activity change, negative = cytotoxicity” value is inactive: -9.2%.

For `O=C(NCC(c1ccc2c(c1)OCO2)N1CCOCC1)C(=O)Nc1ccc(F)cc1F` (stereo not drawn), the “activity change, negative = cytotoxicity” value was inactive: -0.861%.

In the case of `COC(=O)C1CCN(CC(=O)Nc2cc(C)c3c(=O)oc4ccccc4c3n2)CC1`, the “activity change, negative = cytotoxicity” value is inactive: 4.89%.

As for `O=C(Nc1nnc(S(=O)(=O)N2CCCc3ccccc32)s1)c1cccc(F)c1`, the “activity change, negative = cytotoxicity” value was inactive: -17.1%.

With `COc1ccc(N(C(=O)c2cccc(C)c2)S(=O)(=O)c2ccc(C)cc2)cc1`, the “activity change, negative = cytotoxicity” value was inactive: 1.76%.

Consider `Cc1cc(C)c(NC(=O)Cn2ccn(-c3cccc(Cl)c3)c(=O)c2=O)c(C)c1`, for which the “activity change, negative = cytotoxicity” value was inactive: -0.195%.

For `CCOC(=O)c1ccc(NC(=O)c2c(C)nn(-c3ccc(F)cc3)c2-n2cccc2)cc1`, the “activity change, negative = cytotoxicity” value is inactive: 24.4%.

`Cc1ccc2c(c1)N(C(=O)C1CCN(S(=O)(=O)c3c(C)noc3/C=C/c3ccccc3F)CC1)CCO2`: the “activity change, negative = cytotoxicity” value was inactive: 6.61%.

As for `CCn1c(SCc2ccc(F)cc2Cl)nnc1-c1nonc1NC(C)=O`, the “activity change, negative = cytotoxicity” value is inactive: -11.8%.

Regarding `Cc1cccc(CCNC(=O)c2cnc3c(C)cccn3c2=O)c1`, the “activity change, negative = cytotoxicity” value was inactive: 13.7%.

Take `CC(C)(C)c1ccc(S(=O)(=O)c2cn(CC(=O)Nc3ccccc3)c3ccccc3c2=O)cc1`: the “activity change, negative = cytotoxicity” value was inactive: 3.9%.

In the case of `Cc1ccc(CNC(=O)c2ccc3c(c2)N(Cc2ccccc2)C(=O)c2ccccc2S3(=O)=O)cc1`, the “activity change, negative = cytotoxicity” value was inactive: 8.05%.

In the case of `Cc1c(C(=O)Nc2ccc(F)c(Cl)c2)oc2ccc(S(=O)(=O)N(C)C3CCCCC3)cc12`, the “activity change, negative = cytotoxicity” value was inactive: 3.88%.

With `Cc1ccc(-n2ncc(C(=O)Nc3ccc4c(c3)OCO4)c2C2CCN(C(=O)OC(C)(C)C)CC2)c(C)c1`, the “activity change, negative = cytotoxicity” value is inactive: -8.09%.

As to `COc1cc(-c2noc(-c3ccc(NCc4ccco4)c([N+](=O)[O-])c3)n2)cc(OC)c1OC`, the “activity change, negative = cytotoxicity” value was inactive: 4.3%.

Turning to `CCCCN(CC)C(=O)c1cc2c(=O)n3ccccc3nc2n1C`, the “activity change, negative = cytotoxicity” value was inactive: 17.5%.

`Cc1nn(C)c2c1c(C(F)(F)F)cc(=O)n2CC(=O)N1CCCCC1C` (stereo not drawn): the “activity change, negative = cytotoxicity” value was inactive: -3.46%.

In the case of `CCOC(=O)c1nc(Nc2ccccc2OC)c2ccccc2n1`, the “activity change, negative = cytotoxicity” value was inactive: 10.3%.

For the molecule `Cc1cn2c(=O)cc(COc3ccc(NC(=O)c4ccccc4C)cc3)nc2s1`, the “activity change, negative = cytotoxicity” value was inactive: 21.4%.

For `O=C(Nc1ccc(F)cc1F)C1CCN(S(=O)(=O)c2ccc3[nH]c(=O)ccc3c2)CC1`, the “activity change, negative = cytotoxicity” value is inactive: 14.5%.

`CCc1ccc(NC(=O)Cn2nnc(C(=O)NCc3ccc(C)cc3)c2N)cc1`: the “activity change, negative = cytotoxicity” value was inactive: -0.0922%.

Take `CC(=O)c1ccc(N2C(=O)N(Cc3ccccc3C#N)c3ccccc3S2(=O)=O)cc1`: the “activity change, negative = cytotoxicity” value is inactive: 5.29%.

`CCOc1ccc(C(=O)NCC(c2ccc3c(c2)OCO3)N2CCOCC2)cc1` (stereo not drawn): the “activity change, negative = cytotoxicity” value was inactive: 3.6%.

For the molecule `CCc1ccc(OCc2nc(-c3ccc(OC)c(OC)c3)no2)c(Br)c1`, the “activity change, negative = cytotoxicity” value was inactive: -4.95%.

Consider `COc1cc(NC(=O)CCc2nc3cccnc3n2Cc2cccs2)cc(OC)c1OC`, for which the “activity change, negative = cytotoxicity” value was inactive: 2.98%.

As to `CC1(C(=O)NC2CCCCC2)Cc2ccccc2C(=O)N1Cc1ccccc1Cl` (stereo not drawn), the “activity change, negative = cytotoxicity” value is inactive: -0.706%.

For the molecule `O=C(CCc1nc2cccnc2n1-c1ccccc1)Nc1ccc(Cl)c(Cl)c1`, the “activity change, negative = cytotoxicity” value was inactive: 0.168%.

Take `COc1ccc(Nc2c(-c3ccc(N4CCOCC4)cc3)nc3ncccn23)cc1OC`: the “activity change, negative = cytotoxicity” value is inactive: -3.03%.

On to `CC(C)c1cnc2c(c1SCC(=O)N1CCCCC1)c(=O)n(C)c(=O)n2C`, for which the “activity change, negative = cytotoxicity” value was inactive: -1.32%.

In the case of `CCOc1cc(CN2CCN(S(=O)(=O)c3ccc(C)cc3)CC2)ccc1OC`, the “activity change, negative = cytotoxicity” value was inactive: -3.66%.

With `O=C(Nc1nnc(S(=O)(=O)N2CCOCC2)s1)c1ccccc1F`, the “activity change, negative = cytotoxicity” value was inactive: -19.2%.

As for `Cc1ccc(NC(=O)C(C)Sc2nc(-c3ccccc3)c(C#N)c(=O)[nH]2)c(C)c1` (stereo not drawn), the “activity change, negative = cytotoxicity” value was inactive: 1.3%.

For the molecule `O=c1c(N2CCc3ccccc3C2)csc2ccc(Cl)cc12`, the “activity change, negative = cytotoxicity” value was inactive: 7.86%.

For the molecule `CC(C)Cc1nn2c(=O)cc(COC(=O)c3ccc(NC(=O)CCc4ccccc4)cc3)nc2s1`, the “activity change, negative = cytotoxicity” value was inactive: 12.6%.

For `CCc1ccc2c(c1)NC(c1ccc(C)cc1)=NC(c1cccs1)=N2`, the “activity change, negative = cytotoxicity” value is inactive: 2.58%.

On to `CCOC(=O)N1CCc2c(sc3c2c(=O)n(Cc2ccccc2)c(=O)n3CC(=O)Nc2ccc(C)cc2C)C1`, for which the “activity change, negative = cytotoxicity” value was inactive: -6.73%.

On to `CCc1nc(-c2cc(S(=O)(=O)N3CCN(c4ccccc4F)CC3)ccc2OC)no1`, for which the “activity change, negative = cytotoxicity” value is inactive: 4.72%.

For `O=C(Cn1c(=O)c(C(F)(F)F)nc2ccccc21)Nc1cccc(Br)c1`, the “activity change, negative = cytotoxicity” value was inactive: 17.7%.

Consider `COc1ccc(CCNC(=O)c2c(C)oc3ncnc(N4CCOCC4)c23)c(OC)c1`, for which the “activity change, negative = cytotoxicity” value was inactive: 0.679%.

With `Cc1ccc(S(=O)(=O)Nc2cc3c(cc2C)n(C)c(=O)c(=O)n3C)c(C)c1`, the “activity change, negative = cytotoxicity” value was inactive: 2.89%.

With `Cc1cc(C)cc(Nc2cc(C(=O)NC3CCC(C)CC3)c3ccccc3n2)c1` (stereo not drawn), the “activity change, negative = cytotoxicity” value is inactive: 12.8%.

Turning to `Cc1ccc(CNC(=O)C2CCCN(S(=O)(=O)c3cn(C)cn3)C2)cc1` (stereo not drawn), the “activity change, negative = cytotoxicity” value is inactive: 1.22%.

As to `O=C(NCCc1ccccc1)c1ccc(CS(=O)(=O)Cc2ccccc2Cl)o1`, the “activity change, negative = cytotoxicity” value was inactive: -0.19%.

As for `Cc1cc(=O)n(CC(=O)NCc2ccc(OC(C)C)cc2)c2c1c(C)nn2-c1cccc(F)c1`, the “activity change, negative = cytotoxicity” value is inactive: 4.43%.

Take `C=CCc1cccc2cc(C(=O)NCCc3c(C)[nH]c4c(C)cccc34)c(=O)oc12`: the “activity change, negative = cytotoxicity” value was inactive: 2.17%.

`CCN(CC)c1ccc(NC(=O)CCc2nc3cccnc3n2Cc2cccs2)c(C)c1`: the “activity change, negative = cytotoxicity” value was inactive: -13.7%.

For the molecule `O=C(NCC(c1ccc2c(c1)OCO2)N1CCOCC1)C(=O)Nc1ccccc1` (stereo not drawn), the “activity change, negative = cytotoxicity” value was inactive: 0.587%.

For the molecule `NS(=O)(=O)c1ccc(CCNC(=O)Cn2c(-c3cccs3)cc3ccccc32)cc1`, the “activity change, negative = cytotoxicity” value was inactive: -26.1%.
